# The full ranking holds about 81,000 sequences; the median of “one-hybrid fitness for binding parS DNA” is about -0.17, and the highest 2% start at about 0.51. The list shows a part of the results.
# B1: Caulobacter ParB omega fusion; a variant is named by its letters at X, in order, B8GW30 (parent)
# chain: MESVVVGEPGMSEGRRGLGRGLSALLGEVDAAPAQAPGEQLGGSREAPIEILQRNPDQPRRTFREEDLEDLSNSIREKGVLQPILVRPSPDTAGEYQIVAGERAWRAAQRAGLKTVPIMVRELDDLAVLEIGIIENVQRADLNVLEEALSYKVLMEKFERTQENIAQTIGKSXSHVANXMRLLXLPDEVQSYLVSGELTAXHARAIAAAADPVALAKQIIEGGLSVRETEALARKAPNLSAGKSKGGRPPRVKDTDTQALESDLSSVLGLDVSIDHRGSTGTLTITYATLEQLDDLCNRLTRGI
# Variants of: B1
# Assay: one-hybrid fitness for binding parS DNA (scaled: cognate 1, non-cognate 0); higher = stronger binding
# Details: with parS DNA site
# Method in brief: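 Pre- and post-selection plasmids were Illumina-sequenced, three replicate libraries were pooled, and any variant with under 10 reads was removed. The libraries were Caulobacter ParB with four specificity codons randomised, selected in E. coli USO through a HIS3 reporter whose site is 19 bp from the promoter. Cells grew 48 hours at 37°C on M9 without histidine, with 0.1 mM IPTG and 5 mM 3-AT. Fitness is the log change in variant-to-wild-type read ratio, rescaled against cognate and non-cognate.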
row,Variant,one-hybrid fitness for binding parS DNA
1,HTLY,≤ 0.2
2,KWPV,≤ 0.2
3,DRQC,≤ 0.2
4,PMTF,≤ 0.2
5,IWSI,≤ 0.2
6,YAEN,≤ 0.2
7,GNNY,≤ 0.2
8,FIVL,≤ 0.2
9,KSGT,≤ 0.2
10,MIQS,≤ 0.2
11,KTYI,≤ 0.2
12,SMCC,≤ 0.2
13,FFCS,≤ 0.2
14,TQYT,≤ 0.2
15,AHVV,≤ 0.2
16,VDLL,≤ 0.2
17,PTKR,≤ 0.2
18,VLAI,≤ 0.2
19,SRDS,≤ 0.2
20,YETY,≤ 0.2
21,DRVS,≤ 0.2
22,KTWV,≤ 0.2
23,LIGC,≤ 0.2
24,PTAS,≤ 0.2

row,Variant,one-hybrid fitness for binding parS DNA
1,VQLC,≤ 0.2
2,IASR,≤ 0.2
3,ERQV,≤ 0.2
4,MFTR,≤ 0.2
5,VVGR,≤ 0.2
6,VRSR,≤ 0.2
7,NSTR,≤ 0.2
8,SLDD,≤ 0.2
9,KFYR,≤ 0.2
10,IGNL,≤ 0.2
11,DWGL,≤ 0.2
12,HGAS,≤ 0.2
13,DLMS,≤ 0.2
14,VGKG,≤ 0.2
15,RFTQ,≤ 0.2
16,HKLD,≤ 0.2
17,EHVN,≤ 0.2
18,PWWR,≤ 0.2
19,IVMS,≤ 0.2
20,SRCG,≤ 0.2
21,LHSW,≤ 0.2
22,CHPV,≤ 0.2
23,QHLH,≤ 0.2
24,ARMD,≤ 0.2

row,Variant,one-hybrid fitness for binding parS DNA
1,MLGT,≤ 0.2
2,RISQ,≤ 0.2
3,LCKS,≤ 0.2
4,ERRE,≤ 0.2
5,SFFN,≤ 0.2
6,WQKE,≤ 0.2
7,LGRL,≤ 0.2
8,RYWG,0.89
9,RCRR,≤ 0.2
10,LDDF,≤ 0.2
11,QDDS,≤ 0.2
12,DKAT,≤ 0.2
13,KVGK,≤ 0.2
14,KKSN,≤ 0.2
15,CTRM,≤ 0.2
16,PCMM,≤ 0.2
17,AKLE,≤ 0.2
18,QNRA,≤ 0.2
19,PTMI,≤ 0.2
20,FERR,≤ 0.2
21,PCLN,≤ 0.2
22,GAQT,≤ 0.2
23,RCMD,0.215
24,LILA,≤ 0.2

row,Variant,one-hybrid fitness for binding parS DNA
1,QWHL,≤ 0.2
2,RGIN,≤ 0.2
3,PFYR,≤ 0.2
4,EATY,≤ 0.2
5,NTRR,≤ 0.2
6,HRCA,≤ 0.2
7,QWNG,≤ 0.2
8,KMGN,≤ 0.2
9,YSCP,≤ 0.2
10,QRPV,≤ 0.2
11,SDPS,≤ 0.2
12,TDMG,≤ 0.2
13,QSYV,≤ 0.2
14,VTDC,≤ 0.2
15,TPNK,≤ 0.2
16,TIHK,≤ 0.2
17,VTHV,≤ 0.2
18,AGAI,≤ 0.2
19,LNLI,≤ 0.2
20,KVRH,≤ 0.2
21,QWMD,≤ 0.2
22,RTDC,0.887
23,IRET,≤ 0.2
24,WRRS,≤ 0.2

row,Variant,one-hybrid fitness for binding parS DNA
1,IHIL,≤ 0.2
2,TWTK,≤ 0.2
3,RALY,0.48
4,AAKV,≤ 0.2
5,SGFH,0.283
6,QSNS,≤ 0.2
7,LHRY,≤ 0.2
8,ITKK,≤ 0.2
9,DKPY,≤ 0.2
10,PLVA,≤ 0.2
11,VMPC,≤ 0.2
12,SSNY,≤ 0.2
13,LYDF,≤ 0.2
14,HVFP,≤ 0.2
15,RFIM,≤ 0.2
16,RLSK,≤ 0.2
17,PVTT,≤ 0.2
18,YTKC,≤ 0.2
19,MRLL,≤ 0.2
20,THSD,≤ 0.2
21,GLSD,≤ 0.2
22,SSRR,≤ 0.2
23,TCWC,≤ 0.2
24,LVWC,≤ 0.2

row,Variant,one-hybrid fitness for binding parS DNA
1,NTIS,≤ 0.2
2,VAGS,≤ 0.2
3,TKER,≤ 0.2
4,KWVR,≤ 0.2
5,NDVD,≤ 0.2
6,SAPW,≤ 0.2
7,QPER,≤ 0.2
8,YVED,≤ 0.2
9,GEWR,≤ 0.2
10,HEQT,≤ 0.2
11,HENC,≤ 0.2
12,LNSA,≤ 0.2
13,DVSS,≤ 0.2
14,APIV,≤ 0.2
15,SMLG,≤ 0.2
16,TIFS,≤ 0.2
17,PYTY,≤ 0.2
18,GYVS,≤ 0.2
19,KEPN,≤ 0.2
20,EARW,≤ 0.2
21,DQTL,≤ 0.2
22,SWWY,≤ 0.2
23,WSKK,≤ 0.2
24,SCTW,≤ 0.2

row,Variant,one-hybrid fitness for binding parS DNA
1,TRMV,≤ 0.2
2,MILC,≤ 0.2
3,LSNH,≤ 0.2
4,KMQL,≤ 0.2
5,SIAR,≤ 0.2
6,RFPQ,≤ 0.2
7,LYRS,≤ 0.2
8,RLQD,≤ 0.2
9,VHTS,≤ 0.2
10,QVAT,≤ 0.2
11,RALT,0.888
12,ARPE,≤ 0.2
13,ENIE,≤ 0.2
14,DYSV,≤ 0.2
15,HNQM,≤ 0.2
16,RDES,≤ 0.2
17,LCDS,≤ 0.2
18,QADK,≤ 0.2
19,KWSS,≤ 0.2
20,NCPW,≤ 0.2
21,TPSY,≤ 0.2
22,TTTE,≤ 0.2
23,WQCS,≤ 0.2
24,HFFC,≤ 0.2

row,Variant,one-hybrid fitness for binding parS DNA
1,TPSE,≤ 0.2
2,FLLT,≤ 0.2
3,VQKD,≤ 0.2
4,KLTC,≤ 0.2
5,EDSN,≤ 0.2
6,GYSS,≤ 0.2
7,AHHC,≤ 0.2
8,VPTF,≤ 0.2
9,DVLT,≤ 0.2
10,QLYA,≤ 0.2
11,SEQA,≤ 0.2
12,DTNY,≤ 0.2
13,HPIG,≤ 0.2
14,WADR,≤ 0.2
15,WSLS,≤ 0.2
16,KGSV,≤ 0.2
17,RDDF,≤ 0.2
18,KMTS,≤ 0.2
19,IPCW,≤ 0.2
20,LERA,≤ 0.2
21,AALC,≤ 0.2
22,GTRP,≤ 0.2
23,TWAD,≤ 0.2
24,ITIS,≤ 0.2

row,Variant,one-hybrid fitness for binding parS DNA
1,KHGC,≤ 0.2
2,LLMF,≤ 0.2
3,IRVN,≤ 0.2
4,CPYG,≤ 0.2
5,SFES,≤ 0.2
6,VHYI,≤ 0.2
7,NLQQ,≤ 0.2
8,HRRC,0.41
9,STIK,≤ 0.2
10,SDKI,≤ 0.2
11,AAYV,≤ 0.2
12,TKVG,≤ 0.2
13,QLCA,≤ 0.2
14,HLWT,≤ 0.2
15,VGCR,≤ 0.2
16,NCTH,≤ 0.2
17,RQYC,0.94
18,QRGV,≤ 0.2
19,GSPC,≤ 0.2
20,YSLV,≤ 0.2
21,ANKN,≤ 0.2
22,KIQL,≤ 0.2
23,EEIR,≤ 0.2
24,GNLK,≤ 0.2

row,Variant,one-hybrid fitness for binding parS DNA
1,TLYK,≤ 0.2
2,AAQD,≤ 0.2
3,IRIS,≤ 0.2
4,HPAM,≤ 0.2
5,IMGR,≤ 0.2
6,CMIN,≤ 0.2
7,RGPQ,≤ 0.2
8,SRAW,≤ 0.2
9,KTQV,≤ 0.2
10,EADT,≤ 0.2
11,RCPP,≤ 0.2
12,SQVA,≤ 0.2
13,HACR,≤ 0.2
14,TKNM,≤ 0.2
15,RGVD,≤ 0.2
16,NYTL,≤ 0.2
17,CKQF,0.29
18,DQPS,≤ 0.2
19,AEPS,≤ 0.2
20,YQPW,≤ 0.2
21,TKDI,≤ 0.2
22,MAES,≤ 0.2
23,RYNA,0.58
24,PTWY,≤ 0.2

row,Variant,one-hybrid fitness for binding parS DNA
1,RHAN,0.371
2,QIHM,≤ 0.2
3,VPED,≤ 0.2
4,QPIL,≤ 0.2
5,IRKS,≤ 0.2
6,SEMP,≤ 0.2
7,AITW,≤ 0.2
8,KHHT,≤ 0.2
9,RSEI,≤ 0.2
10,PLIN,≤ 0.2
11,KQQG,≤ 0.2
12,HAPK,≤ 0.2
13,KPAG,≤ 0.2
14,WHSV,≤ 0.2
15,ERQS,≤ 0.2
16,WEDM,≤ 0.2
17,KHMV,≤ 0.2
18,GVCR,≤ 0.2
19,SQCR,≤ 0.2
20,TKIG,≤ 0.2
21,LGWQ,≤ 0.2
22,LCNQ,≤ 0.2
23,EHWM,≤ 0.2
24,KPGS,≤ 0.2

row,Variant,one-hybrid fitness for binding parS DNA
1,EMKQ,≤ 0.2
2,RSGM,0.333
3,DSNF,≤ 0.2
4,LVQE,≤ 0.2
5,PYFM,≤ 0.2
6,PKPR,≤ 0.2
7,ACGL,≤ 0.2
8,SSYI,≤ 0.2
9,IAWK,≤ 0.2
10,ERGR,≤ 0.2
11,REAQ,≤ 0.2
12,QVCE,≤ 0.2
13,NHKV,≤ 0.2
14,GATR,≤ 0.2
15,ARML,≤ 0.2
16,SIFW,≤ 0.2
17,IDKS,≤ 0.2
18,RFIN,0.206
19,ATFS,≤ 0.2
20,RLCY,0.485
21,LTLQ,≤ 0.2
22,NCLL,≤ 0.2
23,DRKK,≤ 0.2
24,LPSH,≤ 0.2

row,Variant,one-hybrid fitness for binding parS DNA
1,HSCM,≤ 0.2
2,RFMS,0.983
3,QCMI,≤ 0.2
4,TVFA,≤ 0.2
5,MNDA,≤ 0.2
6,SRSN,≤ 0.2
7,GCQM,≤ 0.2
8,MQSG,≤ 0.2
9,LQQY,≤ 0.2
10,SKIR,≤ 0.2
11,VHSI,≤ 0.2
12,KDSD,≤ 0.2
13,GKSD,≤ 0.2
14,ISYL,≤ 0.2
15,AHDA,≤ 0.2
16,YHIP,≤ 0.2
17,KVTW,≤ 0.2
18,AQWS,≤ 0.2
